Results as given in PubChem BioAssay AID624296 (National Center for Advancing Translational Sciences (NCATS), 2012).
Values joined by “and” are separate entries in the source; they are usually repeats but may differ in a detail not shown here. Equal values may be shown once. Hit rate of the full screen: of about 350,000 compounds, about 9,900 (2.8%) were called active. Inconclusive means that the source gave no clear call. Such entries were picked first, then a sample of the others. The call rests on the fitted dose curve; in most records, active means well fitted activation curve with a large enough effect; inconclusive means small, poorly fitted or top-dose-only effect; inactive means no such curve, though single readings can be large or run the other way. Where the call is inconclusive, the potency comes from a doubtful curve fit. The source holds several records for some structures; these can differ, active in one and inactive in another.

assay: A quantitative high throughput screen for small molecules that induce DNA re-replication in MCF 10a normal breast cells.; further: nearly all actives have a fitted effect of over 50% in size; on activity, positive = re-replication: % of control where 0% means no effect; settings: MCF 10A DNA re-replication, Hoechst nuclear intensity, 48 h; activity, positive = re-replication: at 46.1 µM (top of the series)
Potency means the concentration at half of the fitted maximal effect; tags describe the fitted curve by direction and shape.

| SMILES | activity, positive = re-replication | Potency |
| --- | --- | --- |
| COC(=O)C1=C(c2ccc(F)cc2OCc2ccccc2)C[C@@H]2CC[C@H]1N2C(=O)NCc1ccc(F)cc1 | inconclusive: 80.8% [activator] |  |
| COC(=O)C1=C(c2cccc(OCc3ccccc3)c2)C[C@@H]2CC[C@H]1N2C(=O)NCc1ccccc1OC |  | inconclusive: 0.731 µM [activator, full curve, poor fit] |
| COc1ccccc1-n1c(O)c(/C=C2\C=Nc3ccccc32)c(=O)[nH]c1=O |  | inactive |
| COc1ccc(C(=O)Nc2cccc(S(=O)(=O)NCc3ccco3)c2)cc1 |  | inconclusive: 32.6 µM [activator, partial curve, poor fit] |
| CN=C(NC#N)NCCSCc1nc[nH]c1C |  | inactive and inconclusive: 92 nM [activator, full curve, poor fit] |
| CCc1cc(=O)oc2c(C)c(OCC(=O)N3C[C@H]4C[C@@H](C3)c3cccc(=O)n3C4)ccc12 |  | inconclusive: 0.0291 µM [activator, full curve, poor fit] |
| CC(=Nc1ccc2c(c1)CCC2)c1c(O)n(-c2ccccc2)c(=O)[nH]c1=O |  | inconclusive: 0.13 µM [activator, full curve, poor fit] |
| O=c1[nH]c(O)c(C=Nc2ccccc2Sc2ccccc2)c(=O)[nH]1 |  | inconclusive: 0.0058 µM [activator, full curve, poor fit] |
| CC(C)(C)c1nc(NCc2ccc3c(c2)OCO3)c2nnn(Cc3ccccc3Cl)c2n1 |  | inactive |
| CCCCn1c(NC(=O)c2ccc(Br)o2)c(C(=O)OCC)c2nc3ccccc3nc21 |  | active: 18.4 µM |
| COc1cc([C@@H]2c3cc4c(cc3[C@H](O)[C@H]3COC(=O)[C@H]23)OCO4)cc(OC)c1OC |  | active: 0.0211 µM |
| N#CC1=C(N)Oc2c(c(=O)sc3ccccc23)C1c1ccncc1 (configuration not stated) |  | active: 20.6 µM |
| Cn1c(NN=O)nc2ccccc21 |  | inactive |
| O=c1[nH]cc(F)c(=O)[nH]1 |  | inconclusive: 25.9 µM [activator, single point] |
| NCCc1c[nH]c2ccc(O)cc12 |  | inconclusive: 0.164 µM [activator, full curve] |
| CCOP(=O)(OCC)C(NC(=O)c1cccc2ccccc12)C(Cl)(Cl)Cl (configuration not stated) |  | inconclusive: 23.1 µM [activator, single point] |
| O=C(c1cc2nc(-c3ccccc3)cc(-c3ccccc3)n2n1)N1CCC2(CC1)OCCO2 |  | inconclusive: 18.4 µM [activator, partial curve, poor fit] |
| NP(=O)(Oc1ccc(Cl)cc1)Oc1ccc(Cl)cc1 |  | inconclusive: 8.2 µM [activator, partial curve, poor fit] |
| O=C1NC(=O)C(=Cc2ccccc2OCCOc2ccc([N+](=O)[O-])cc2)C(=O)N1 |  | active: 18.4 µM |
| O=C(c1ccc(C(F)(F)F)cc1)C1CCCN(Cc2ccncc2)C1 (configuration not stated) |  | inconclusive: 9.2 µM [activator, partial curve, poor fit] |
| CCOCC1(CCc2ccccc2)C(=O)NC(=S)NC1=O |  | inactive |

| SMILES | activity, positive = re-replication | Potency |
| --- | --- | --- |
| COc1ccc(/C=C2/C(=O)N(Cc3ccco3)C(=O)N(C(C)C)C2=O)cc1 |  | active: 18.4 µM |
| CCCC[C@@H](C)C[C@@H](C)C(=O)N(C)[C@@H](CC(C)C)C(=O)N[C@H](C(=O)N(C)[C@H](C(=O)N1C[C@@H](O)C[C@H]1C(=O)N1C(=O)C=C[C@@H]1C)C(C)C)C(C)OC(C)=O (some centres not stated) |  | inconclusive: 1.64 µM [activator, partial curve, poor fit] |
| COc1ccc2c3c1OC1C(=O)CC[C@@]4(O)[C@@H](C2)N(C)CC[C@]314 (some centres not stated) |  | inconclusive: 20.6 µM [activator, single point] |
| CCC(C)C1NC(=O)C2CCCN2C(=O)C(CC(C)C)OC(=O)CCNC(=O)C(C)N(C)C(=O)C(C(C)C)N(C)C1=O (configuration not stated) |  | inconclusive: 10.3 µM [activator, partial curve] |
| OC12ONC(c3ccccn3)C1N1CCC2CC1 (configuration not stated) |  | active: 7.31 µM |
| CCC(COC(=O)c1cc(OC)c(OC)c(OC)c1)(c1ccccc1)N(C)C (configuration not stated) |  | inconclusive: 10.3 µM [activator, partial curve, poor fit] and inconclusive: 580 nM [activator, partial curve, poor fit] and inconclusive: 20.6 µM [activator, partial curve] |
| Cc1cc(NC(=O)CCl)on1 |  | inconclusive: 29.1 µM [activator, single point] |
| NC(=O)Cn1cc(C(=O)c2ccccc2F)c2ccccc21 |  | active: 0.58 µM |
| Cn1cc(C(=O)Cc2ccccc2)c2ccccc21 |  | inactive |
| O=C1CN=C(c2ccc(Cl)cc2)c2oc3ccccc3c2N1 |  | inconclusive: 18.4 µM [activator, partial curve, poor fit] |
| Cc1cc(C)cc(C(=O)OC2CC3CCC(C2)N3C)c1 (configuration not stated) |  | inconclusive: 1.68 µM [activator, full curve, poor fit] |
| OC(c1ccc(F)cc1)C(c1ccccc1)N1CCOCC1 (configuration not stated) |  | inconclusive: 18.4 µM [activator, single point] |
| Cc1ccc(CSc2n[nH]c(N)n2)cc1 |  | inconclusive: 29.1 µM [activator, partial curve, poor fit] |
| COc1ccc(C[C@H]2NC[C@H](O)[C@H]2OC(C)=O)cc1 |  | inconclusive: 0.517 µM [activator, full curve, poor fit] |
| COc1ccc(Cl)cc1C(=O)C1CCCN(Cc2cnc(C)s2)C1 (configuration not stated) |  | inactive |
| O=C(C1CCN(S(=O)(=O)c2ccc(Br)s2)CC1)N1CCN(c2ccccc2)CC1 |  | inconclusive: 8.2 µM [activator, partial curve] |
| Cc1cc(C(=O)Cn2nnc(-c3ccc(Cl)cc3)n2)c(C)n1-c1ccccc1 |  | inconclusive: 20.6 µM [activator, single point] |
| COc1ccc(/C=C/C(=O)c2c(O)n(CCC3=CCCCC3)c(=O)[nH]c2=O)cc1OC |  | inconclusive: 32.6 µM [activator, partial curve, poor fit] |
| Cc1cc(N2CCOCC2)nc2ccc(NC(=O)CCC(=O)N3CCC4(CC3)OCCO4)cc12 |  | inactive |
| N#CC(C(=O)C12CC3CC(CC(C3)C1)C2)c1nc2ccccc2[nH]1 (configuration not stated) |  | inconclusive: 11.6 µM [activator, partial curve, poor fit] |
| Cc1cc(C)nc(N2Cc3ccccc3C2=N)n1 |  | inactive |

| SMILES | activity, positive = re-replication | Potency |
| --- | --- | --- |
| CC(=O)c1cn(Cc2ccc(F)cc2)c2ccccc12 |  | inconclusive: 4.61 µM [activator, full curve] |
| COc1ccc2c(c1)/C(=C/c1cnc[nH]1)C(=O)N2 |  | inconclusive: 2.06 µM [activator, partial curve, poor fit] |
| COC(=O)c1ccc(CSc2nc3c(cnn3-c3ccc(C)cc3)c(=O)[nH]2)o1 |  | inconclusive: 16.4 µM [activator, single point] |
| CCCCn1c(N)c(C(=O)NCc2cccs2)c2nc3ccccc3nc21 |  | active: 1.16 µM |
| CC1(C)C(C=C(Cl)Cl)C1C(=O)OCc1cccc(Oc2ccccc2)c1 (configuration not stated) |  | inactive and active: 5.2 nM |
| COc1ccc2c(c1)[nH]c1c(C)nccc12 |  | inconclusive: 0.164 µM [activator, full curve, poor fit] |
| O=C1[C@H]2[C@@H](C3CC3)N3C(=O)CN(CC4CC4)C(=O)[C@@]3(Cc3ccccc3)[C@H]2C(=O)N1c1ccccc1 |  | inactive |
| O=C1NC(=O)N(CCc2ccc(F)cc2)C(=O)/C1=C/c1cccs1 |  | inconclusive: 29.1 µM [activator, single point] |
| COCCCNC(=O)c1c(NC(=O)c2ccco2)n(Cc2ccccc2)c2nc3ccccc3nc12 |  | inconclusive: 0.731 µM [activator, partial curve, poor fit] |
| COC(=O)C1=C(C)NC(C)=C(C(=O)OC)C1c1ccccc1[N+](=O)[O-] |  | inconclusive: 33.5 µM [activator, single point] and inconclusive: 29.1 µM [activator, partial curve, poor fit] and inconclusive: 29.1 µM [activator, single point] |
| CC(C)c1oc(=O)cc2c1[C@@H](O)[C@H]1OC(=O)[C@@]3(C)C[C@@H](O)[C@@H](O)[C@@]2(C)C13 (some centres not stated) |  | active: 5.17 µM |
| Nc1c(C(=O)NCc2ccco2)c2nc3ccccc3nc2n1Cc1ccc(F)cc1 |  | active: 3.66 µM |
| CCN(CC)c1ccc(N=Cc2c(O)n(Cc3ccccc3)c(=O)[nH]c2=O)cc1 |  | inconclusive: 1.16 µM [activator, full curve, poor fit] |
| CNC(=O)Oc1ccc(-c2cn3cc(C)ccc3n2)cc1 |  | inactive |
| CC(=O)OC1CC[C@]2(C#N)[C@H]3CC[C@]4(C)[C@H](C5C=CC(=O)O5)CCC4(O)C3CCC2(O)C1 (some centres not stated) |  | inconclusive: 20.6 µM [activator, single point] |
| CC1CCN(CC(=O)c2cccc(C(F)(F)F)c2)CC1 |  | inactive |
| CC1(C)CC2CCC(O)C2C(CCO)N1 (configuration not stated) |  | inconclusive: 23.1 µM [activator, single point] |
| Oc1c(Cl)c(Cl)c(Cl)c(Cl)c1Cl |  | active: 8.2 µM |
| CCN1CCN(P2(=O)C=C(c3ccccc3)OC(c3ccccc3)=C2)CC1 |  | inconclusive: 2.59 µM [activator, partial curve, poor fit] |
| CC12CC[C@H]3[C@@H](CCC4(O)C[C@H](O)CCC34/C=N/NC(=O)c3ccccc3Cl)C1(O)CCC2C1=CC(=O)OC1 (some centres not stated) |  | inactive |
